This is an account of results in the supplement of paper PMC9446081.

Structures are written as SMILES. In all, about 39,000 compounds went through this assay and about 220 (0.56%) showed activity. This is one part of the list.
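Note: static incubation at 37 °C against the wild-type strain, values averaged over two biological replicates.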

In the experiment the test system is Escherichia coli K-12 BW25113. Briefly: relative growth (OD600 normalised to plate interquartile mean) (fraction); higher = less growth inhibition, active = 0.2 or less. The following applies: 50 µM; LB; incubation time: overnight (16-24 h).
As to `C[C@H]1CN([C@@H](C)CO)C(=O)Cc2cc(NC(=O)Nc3cccc4ccccc34)ccc2O[C@@H]1CN(C)C(=O)Nc1ccccc1`, the relative growth is inactive: 1.02.
Take `C[C@H]1CN([C@@H](C)CO)C(=O)CCCn2nncc2CO[C@@H]1CN(C)Cc1cccc2c1OCCCO2`: the relative growth is inactive: 0.992.
The figure for `COc1ccc(S(=O)(=O)N(C)C[C@@H]2OCCCC[C@H](C)Oc3ccc(NC(=O)Nc4cccc5ccccc45)cc3C(=O)N([C@@H](C)CO)C[C@H]2C)cc1` is inactive: 1.04; for `COc1ccc(S(=O)(=O)N(C)C[C@@H]2Oc3cc(C#CC4CC4)ccc3S(=O)(=O)N([C@@H](C)CO)C[C@@H]2C)cc1` it is inactive: 1.04.
Consider `C[C@H](CO)N1C[C@H](C)[C@@H](CN(C)C(=O)NC2CCCCC2)Oc2c(NS(C)(=O)=O)cccc2C1=O`, for which the relative growth is inactive: 0.988.
The value for `CCS(=O)(=O)NCC[C@@H]1CC[C@@H](NC(=O)C2CCOCC2)[C@@H](CO)O1` was inactive: 0.991; that for `COc1ccc(S(=O)(=O)N(C)C[C@@H]2OCCCC[C@H](C)Oc3ccc(NC(=O)Nc4ccc5c(c4)OCO5)cc3C(=O)N([C@H](C)CO)C[C@@H]2C)cc1` was inactive: 1.03; that for `C[C@H]1CN([C@@H](C)CO)C(=O)c2cc(C#CC3(O)CCCC3)cnc2O[C@@H]1CN(C)C(=O)C1CCCCC1` was inactive: 1.01.
The figure for `C[C@@H]1CN([C@@H](C)CO)C(=O)c2cccc(NC(=O)c3ccc(-c4nccs4)cc3)c2O[C@@H]1CN(C)Cc1ccc(Cl)c(Cl)c1` is inactive: 1.04; for `C[C@@H]1CCCCO[C@@H](CN(C)S(=O)(=O)c2ccc(F)cc2)[C@@H](C)CN([C@@H](C)CO)C(=O)c2cc(NS(=O)(=O)c3cn(C)cn3)ccc2O1` it is inactive: 0.997; for `COCCOC(=O)N1C(=O)[C@@]2(c3ccccc31)[C@H](c1ccc(OCCO)cc1)N1[C@H](c3ccccc3)[C@H](c3ccccc3)OC(=O)[C@H]1[C@@H]2C(=O)N1CCc2cc(OC)c(OC)cc2C1` it is inactive: 1.04.
The figure for `Cc1noc(C)c1NC(=O)N(C)C[C@H]1Oc2c(NC(=O)c3ccc(-c4nccs4)cc3)cccc2C(=O)N([C@@H](C)CO)C[C@H]1C` is inactive: 0.991.
Take `C[C@@H]1CCCCO[C@@H](CN(C)C(=O)Nc2ccc(F)cc2)[C@H](C)CN([C@@H](C)CO)C(=O)c2cc(NC(=O)Nc3ccccc3)ccc2O1`: the relative growth is inactive: 1.03.
The value for `COCCNC(=O)C[C@@H]1C[C@H]2c3cc(NS(C)(=O)=O)ccc3O[C@H]2[C@@H](CO)O1` was inactive: 0.981.
The figure for `COCC(=O)Nc1ccc2c(c1)C(=O)N(C)C[C@@H](OC)[C@H](C)CN(Cc1ccccc1OC)[C@H](C)CO2` is inactive: 0.988.
For `CCCCCCCCCCCCCCCC(=O)OC1C(SC)OC(C(NC(=O)C2CC(CCC)CN2C)C(C)Cl)C(O)C1O.Cl` (stereo not drawn), the relative growth was inactive: 0.863.
The figure for `Cc1noc(C)c1NC(=O)Nc1ccc2c(c1)C(=O)N([C@H](C)CO)C[C@H](C)[C@H](CN(C)S(=O)(=O)c1ccc(Cl)cc1)OCCCC[C@H](C)O2` is inactive: 0.98; for `COc1cccc(CNC(=O)C[C@@H]2C=C[C@H](NC(=O)C3CCOCC3)[C@H](CO)O2)c1` it is inactive: 0.98.
As to `C[C@@H]1CCCCO[C@H](CN(C)S(=O)(=O)c2ccc(F)cc2)[C@@H](C)CN([C@H](C)CO)C(=O)c2cc(NS(=O)(=O)c3cn(C)cn3)ccc2O1`, the relative growth was inactive: 0.992.
`Cc1ccc(S(=O)(=O)N2C[C@H](O)COC[C@@H]3O[C@H](CC(=O)NCCN4CCCCC4)CC[C@H]32)cc1`: the relative growth is inactive: 0.981.
Turning to `C[C@@H]1CN([C@@H](C)CO)C(=O)c2cc(NC(=O)c3ccncc3)ccc2O[C@H]1CN(C)C(=O)Nc1ccc2c(c1)OCO2`, the relative growth is inactive: 1.03.
The figure for `O=C(Cc1ccncc1)NCC[C@H]1CC[C@@H](NC(=O)C2CCOCC2)[C@H](CO)O1` is inactive: 1.01; for `C[C@@H]1CN([C@H](C)CO)C(=O)Cc2cc(NS(C)(=O)=O)ccc2O[C@H]1CN(C)S(=O)(=O)c1ccc(Cl)cc1` it is inactive: 1.01.
The value for `C[C@H](CO)N1C[C@H](C)[C@H](CN(C)Cc2ccc(Oc3ccccc3)cc2)Oc2cc(-c3ccncc3)ccc2S1(=O)=O` was inactive: 1.04; that for `Cn1cnc2c(C(F)(F)F)nc(N)nc21` was inactive: 1.01; that for `C[C@@H]1CN([C@@H](C)CO)C(=O)c2cc(-c3ccc(C(=O)N(C)C)cc3)cnc2O[C@@H]1CN(C)C(=O)c1ccncc1` was inactive: 0.99.
Regarding `CN(C)CCCNC(=O)C[C@H]1C=C[C@@H](NC(=O)Cc2cccnc2)[C@@H](CO)O1`, the relative growth was inactive: 0.987.
The value for `COc1ccc(NC(=O)N(C)C[C@@H]2OCCCC[C@@H](C)Oc3ccc(NS(=O)(=O)c4ccccc4)cc3C(=O)N([C@@H](C)CO)C[C@@H]2C)cc1` was inactive: 1; that for `C[C@H](CO)N1C[C@H](C)[C@H](CN(C)Cc2ccc3c(c2)OCO3)OCCCC[C@H](C)Oc2ccc(NC(=O)CCC(F)(F)F)cc2C1=O` was inactive: 0.991; that for `C[C@H](CO)N1C[C@H](C)[C@H](CN(C)S(C)(=O)=O)Oc2c(NC(=O)c3nc4ccccc4s3)cccc2C1=O` was inactive: 1.01.
With `O=C(C[C@@H]1C=C[C@H](NC(=O)CN2CCOCC2)[C@H](CO)O1)NC1CCC1`, the relative growth was inactive: 0.974.
The figure for `CN1CCN(C(=O)C[C@H]2CC[C@H]3[C@@H](COC[C@H](O)CN3Cc3ccc(Oc4ccccc4)cc3)O2)CC1` is inactive: 1.01.
The value for `C=CCOC(=O)[C@@H]1[C@H]2C(=O)O[C@H](c3ccccc3)[C@H](c3ccccc3)N2[C@H](c2ccc(OCCOC(=O)[C@H]3C[C@H]4C(=O)N5CCC[C@H]5C(=O)N4[C@H]3c3cccc(OCCO)c3)cc2)[C@@]12C(=O)Nc1ccc(I)cc12` was inactive: 1.09; that for `O=C(C[C@H]1CC=CCC[C@@H](Cc2ccc(F)cc2)C(=O)OC[C@H](Cc2ccccc2)NC1=O)NCCO` was inactive: 1; that for `CC(C)NC(=O)Nc1ccc2c(c1)C(=O)N([C@@H](C)CO)C[C@H](C)[C@H](CN(C)S(=O)(=O)c1cn(C)cn1)OCCCC[C@@H](C)O2` was inactive: 1.01.
In the case of `C[C@H](CO)N1C[C@H](C)[C@H](CN(C)Cc2ccc(C(F)(F)F)cc2)Oc2c(NS(C)(=O)=O)cccc2C1=O`, the relative growth is inactive: 1.
With `COCCNC(=O)C[C@@H]1CC[C@@H]2[C@H](COC[C@@H](O)CN2S(=O)(=O)c2ccccc2C)O1`, the relative growth was inactive: 0.965.
The figure for `C[C@H]1CN([C@@H](C)CO)C(=O)c2cccc(NC(=O)C3CCOCC3)c2O[C@H]1CN(C)S(=O)(=O)c1ccc(F)cc1` is inactive: 1.01; for `C[C@@H]1CN([C@H](C)CO)C(=O)c2cccc(NC(=O)Nc3ccc4c(c3)OCO4)c2O[C@@H]1CN(C)Cc1ccc(C(=O)Nc2ccccc2N)cc1` it is inactive: 1.02; for `Cc1ccc(S(N)(=O)=O)c(C)c1` it is inactive: 1.01.
For the compound `C[C@@H]1CN([C@@H](C)CO)C(=O)c2c(c3ccccc3n2C)-c2ccccc2CO[C@@H]1CN(C)Cc1ccc(Cl)c(Cl)c1`, the relative growth is inactive: 1.
With `CCOc1ccc2ccccc2c1C(=O)NC1C(=O)N2C1SC(C)(C)C2C(=O)[O-].[Na+]` (stereo not drawn), the relative growth was inactive: 1.18.
The value for `C[C@H](CO)N1C[C@H](C)[C@H](CN(C)C(=O)Nc2ccccc2)OCCCC[C@H](C)Oc2ccc(NC(=O)Nc3cccc4ccccc34)cc2C1=O` was inactive: 1.02; that for `Cc1ccc(S(=O)(=O)N(C)C[C@H]2Oc3ccc(NS(=O)(=O)c4ccccc4)cc3CC(=O)N([C@H](C)CO)C[C@H]2C)cc1` was inactive: 1.02.
`C[C@@H]1CCCCO[C@@H](CN(C)C(=O)CCC(F)(F)F)[C@H](C)CN([C@@H](C)CO)C(=O)c2cc(NS(=O)(=O)c3ccc(F)cc3)ccc2O1`: the relative growth was inactive: 0.978.
The figure for `C[C@@H]1CN([C@@H](C)CO)C(=O)CCCn2cc(nn2)CO[C@@H]1CN(C)C(=O)Nc1cccc(Oc2ccccn2)c1` is inactive: 0.988.
The figure for `C[C@@H]1CN([C@@H](C)CO)C(=O)Cc2cc(NS(=O)(=O)c3ccc(Cl)cc3)ccc2O[C@@H]1CN(C)C(=O)Nc1ccc(C(F)(F)F)cc1` is inactive: 0.976; for `NC(=O)CCN1C(=O)[C@@H]2[C@@H](C1=O)[C@@H]1C=C[C@@H]2C1` it is inactive: 1.02; for `CN(C)CC#Cc1ccc([C@H]2[C@@H](CO)N3C(=O)CN(C(=O)c4cccnc4)C[C@H]23)cc1` it is inactive: 0.998.
The figure for `C=CCCCCCCCCC(=O)Nc1ccccc1C` is inactive: 1; for `CN(C)N(C)C(=O)[C@@]1(Cc2ccccc2)CCCN(C(=O)[C@@H](Cc2c[nH]c3ccccc23)NC(=O)C(C)(C)N)C1` it is inactive: 1; for `Cc1ccc(S(=O)(=O)NCCOc2nc(N(C)C)nc(N3CCOCC3)n2)cc1` it is inactive: 1.01.
For `Cc1noc(C)c1S(=O)(=O)N(C)C[C@H]1OCCCC[C@H](C)Oc2ccc(NS(C)(=O)=O)cc2C(=O)N([C@@H](C)CO)C[C@@H]1C`, the relative growth was inactive: 0.993.
With `C[C@H]1CN([C@@H](C)CO)C(=O)CCCn2nncc2CO[C@@H]1CN(C)S(=O)(=O)c1ccccc1C#N`, the relative growth is inactive: 1.
The figure for `COc1ccc(NC(=O)CSC2=NC(C)=C(C(=O)Nc3nc4ccccc4s3)[C@H](c3ccco3)C2C#N)cc1` (stereo partly drawn) is inactive: 1; for `CCN(CC)CCN(Cc1ccc(-c2ccc(C(F)(F)F)cc2)cc1)C(=O)Cn1c(SCc2ccc(F)cc2)nc(=O)c2c1CCC2` it is inactive: 0.9; for `C[C@H]1CN([C@@H](C)CO)C(=O)c2cccc(NC(=O)Nc3ccccc3)c2O[C@@H]1CN(C)Cc1ccc(Oc2ccccc2)cc1` it is inactive: 0.973.
As for `Cn1c(N2CCOCC2)nc2c1c(=O)[nH]c(=O)n2C`, the relative growth is inactive: 0.994.
